We go through 20 molecules from paper PMC9911399, “Two distinct binding modes provide the RNA-binding protein RbFox with extraordinary sequence specificity”.

T1: RBFOX1 RRM RbFoxmut (Fox-RRM*) (Homo sapiens, UniProt Q9NWB1 109-208, R118D;E147R;N151S;E152T)
T1 sequence: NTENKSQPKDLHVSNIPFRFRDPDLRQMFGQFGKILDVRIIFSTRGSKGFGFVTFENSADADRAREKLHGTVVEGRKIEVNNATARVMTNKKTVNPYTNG

B1: AACGGUA (DNA:RNA)
RNA: GGGAGACCGGAAUUCAGAUUGUCCAACGGUAUUAAAUCCCGUCGUAGCCACCA
DNA 1: CAATCTGAATTCCGGTCTCCC
DNA 2: TGGTGGCTACGACGGGATT
B2: UCCAAAG (DNA:RNA)
RNA: B1 RNA with A25U, A26C, G28A, G29A, U30A, A31G
DNA 1: CAATCTGAATTCCGGTCTCCC
DNA 2: TGGTGGCTACGACGGGATT
B3: CUUAUGU (DNA:RNA)
RNA: GGGAGACCGGAAUUCAGAUUGUCCCUUAUGUUUAAAUCCCGUCGUAGCCACCA
DNA 1: CAATCTGAATTCCGGTCTCCC
DNA 2: TGGTGGCTACGACGGGATT
B4: AUUGAGG (DNA:RNA)
RNA: B3 RNA with C25A, A28G, U29A, U31G
DNA 1: CAATCTGAATTCCGGTCTCCC
DNA 2: TGGTGGCTACGACGGGATT
B5: UGAGAAG (DNA:RNA)
RNA: B1 RNA with A25U, A26G, C27A, G29A, U30A, A31G
DNA 1: CAATCTGAATTCCGGTCTCCC
DNA 2: TGGTGGCTACGACGGGATT
B6: AGAUGAG (DNA:RNA)
RNA: B1 RNA with A26G, C27A, G28U, U30A, A31G
DNA 1: CAATCTGAATTCCGGTCTCCC
DNA 2: TGGTGGCTACGACGGGATT
B7: GCUGACG (DNA:RNA)
RNA: B1 RNA with A25G, A26C, C27U, G29A, U30C, A31G
DNA 1: CAATCTGAATTCCGGTCTCCC
DNA 2: TGGTGGCTACGACGGGATT
B8: GAUAUUC (DNA:RNA)
RNA: B3 RNA with C25G, U26A, G30U, U31C
DNA 1: CAATCTGAATTCCGGTCTCCC
DNA 2: TGGTGGCTACGACGGGATT
B9: CCAUGAA (DNA:RNA)
RNA: B1 RNA with A25C, A26C, C27A, G28U, U30A
DNA 1: CAATCTGAATTCCGGTCTCCC
DNA 2: TGGTGGCTACGACGGGATT
B10: GAGGAGA (DNA:RNA)
RNA: B1 RNA with A25G, C27G, G29A, U30G
DNA 1: CAATCTGAATTCCGGTCTCCC
DNA 2: TGGTGGCTACGACGGGATT
B11: GGUCGAA (DNA:RNA)
RNA: B1 RNA with A25G, A26G, C27U, G28C, U30A
DNA 1: CAATCTGAATTCCGGTCTCCC
DNA 2: TGGTGGCTACGACGGGATT
B12: GAGGCUA (DNA:RNA)
RNA: B1 RNA with A25G, C27G, G29C
DNA 1: CAATCTGAATTCCGGTCTCCC
DNA 2: TGGTGGCTACGACGGGATT
B13: GCGAGCA (DNA:RNA)
RNA: B1 RNA with A25G, A26C, C27G, G28A, U30C
DNA 1: CAATCTGAATTCCGGTCTCCC
DNA 2: TGGTGGCTACGACGGGATT
B14: AGCAUAC (DNA:RNA)
RNA: B1 RNA with A26G, G28A, G29U, U30A, A31C
DNA 1: CAATCTGAATTCCGGTCTCCC
DNA 2: TGGTGGCTACGACGGGATT
B15: GCGUCGA (DNA:RNA)
RNA: B1 RNA with A25G, A26C, C27G, G28U, G29C, U30G
DNA 1: CAATCTGAATTCCGGTCTCCC
DNA 2: TGGTGGCTACGACGGGATT
B16: CGCACUU (DNA:RNA)
RNA: B3 RNA with U26G, U27C, U29C, G30U
DNA 1: CAATCTGAATTCCGGTCTCCC
DNA 2: TGGTGGCTACGACGGGATT
B17: GUAAUCG (DNA:RNA)
RNA: B3 RNA with C25G, U27A, G30C, U31G
DNA 1: CAATCTGAATTCCGGTCTCCC
DNA 2: TGGTGGCTACGACGGGATT
B18: GACUUUC (DNA:RNA)
RNA: B1 RNA with A25G, G28U, G29U, A31C
DNA 1: CAATCTGAATTCCGGTCTCCC
DNA 2: TGGTGGCTACGACGGGATT
B19: CGACAGU (DNA:RNA)
RNA: B3 RNA with U26G, U27A, A28C, U29A
DNA 1: CAATCTGAATTCCGGTCTCCC
DNA 2: TGGTGGCTACGACGGGATT
B20: GCGAGUA (DNA:RNA)
RNA: B1 RNA with A25G, A26C, C27G, G28A
DNA 1: CAATCTGAATTCCGGTCTCCC
DNA 2: TGGTGGCTACGACGGGATT

Residue numbers refer to the chain shown, from its start. This is one part of the list.

The target of the experiment is T1, RBFOX1 RRM RbFoxmut (Fox-RRM*). Nature of the experiment: EMSA; HiTS-Eq, 1 nM pool, 10 min; buffer printed only for the single-RNA assays: 10 mM Tris pH 7.5, 150 mM NaCl, 3.4 mM EDTA, 0.001% NP-40, 30 C. The settings on record: tags: His6 N-terminal (pET28a); label: 5' 32P. In a few lines:
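Relative association constants, normalised to the cognate motif, were derived by comparing read counts of each RNA species with those of the control reaction. The RNA sequenced was the free fraction, separated by 8% native PAGE after a 10 min equilibration in 50 µL of 1 nM 5′-radiolabelled RNA (7 randomized nucleotides) with increasing concentrations of purified wild-type or mutant RbFox RRM.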
On the technique in general: A gel shift assay detects complexes by their altered migration in electrophoresis.
As for B1, the binding signal is 0.139 KA relative to UGCAUGU.

Take B2: the binding signal is 0.0839 KA relative to UGCAUGU.

Regarding B3, the binding signal was 0.158 KA relative to UGCAUGU.

As for B4, the binding signal is 0.0811 KA relative to UGCAUGU.

Take B5: the binding signal is 0.096 KA relative to UGCAUGU.

In the case of B6, the binding signal is 0.134 KA relative to UGCAUGU.

Take B7: the binding signal is 0.0868 KA relative to UGCAUGU.

As for B8, the binding signal is 0.0777 KA relative to UGCAUGU.

Turning to B9, the binding signal was 0.152 KA relative to UGCAUGU.

Take B10: the binding signal is 0.0599 KA relative to UGCAUGU.

For the molecule B11, the binding signal is 0.108 KA relative to UGCAUGU.

B12: the binding signal was 0.1 KA relative to UGCAUGU.

On to B13, for which the binding signal was 0.148 KA relative to UGCAUGU.

As to B14, the binding signal was 0.109 KA relative to UGCAUGU.

For B15, the binding signal was 0.104 KA relative to UGCAUGU.

Consider B16, for which the binding signal is 0.0892 KA relative to UGCAUGU.

As to B17, the binding signal is 0.0982 KA relative to UGCAUGU.

Consider B18, for which the binding signal is 0.0357 KA relative to UGCAUGU.

Consider B19, for which the binding signal is 0.06 KA relative to UGCAUGU.

Turning to B20, the binding signal was 0.153 KA relative to UGCAUGU.
